Data from PubChem BioAssay AID1671194 (National Center for Advancing Translational Sciences (NCATS), 2021).
Out of some 140,000 compounds screened, about 240 (0.17%) were called active. Inconclusive results, whose numbers are uncertain, are shown with a selection of clear calls. Calls come from the whole dose curve; as a rule, active = well fitted inhibition curve with a large enough effect; inconclusive = small, poorly fitted or top-dose-only effect; inactive = no such curve, though single readings can be large or run the other way. Where the call is inconclusive, the potency comes from a doubtful curve fit.

Experiment: Primary qHTS assay for inhibitors of alpha-synuclein gene (SNCA) expression; note: nearly all actives have a fitted effect of over 45% in size;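 for activity change, negative = inhibition: plate controls were DMSO cells for no effect and cell-free wells for full effect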
Conditions: HEK-293 SNCA-luciferase knock-in, luminescence, 24 h; activity change, negative = inhibition: at 57.2 µM (top of the series) unless noted
Potency is the fitted concentration of half-maximal effect; tags give direction and shape of the fitted curve.

| Structure (SMILES) | Potency | activity change, negative = inhibition |
| --- | --- | --- |
| Cc1nc2sccn2c(=O)c1S(=O)(=O)Nc1cc(Cl)ccc1O | inconclusive: 17.8 µM [inhibitor, single point] |  |
| COc1ccc(C(=O)N[C@H]2CO[C@H]3[C@@H]2OC[C@@H]3n2nnnc2Oc2ccc3c(c2)OCO3)cc1 | inconclusive: 1 µM [inhibitor, full curve, poor fit] |  |
| CC(C)N(C)Cc1ccc(-c2nc(-c3cccnc3)cc(=O)[nH]2)cc1 |  | inactive: 2.64% |
| Cc1nn(-c2ccc(F)cc2)c(-n2cccc2)c1C(=O)NCCc1ccc(Cl)cc1 | inconclusive: 25.1 µM [inhibitor, single point] |  |
| Cc1cccc(-c2cccc(CN3CCC(N[S+](=O)([O-])c4ccccc4)CC3)c2)c1 | inconclusive: 2.82 µM [inhibitor, full curve] |  |
| COc1ccc(NC(=O)C(Cc2ccccc2)NS(=O)(=O)c2ccc3c(c2)CCC(=O)N3)c(OC)c1 (stereo not drawn) | inconclusive: 8.91 µM [inhibitor, full curve, poor fit] |  |
| Cc1ccc(-c2nnc(C3CN(C(=O)Cc4cccc(C)c4)CC34CCOCC4)o2)cc1 (stereo not drawn) |  | inactive: -13.9% |
| COc1ccc2sc(N(Cc3cccnc3)C(=O)C3CCCCC3)nc2c1 | inconclusive: 28.2 µM [inhibitor, single point] |  |
| O=C(c1nc(-c2ccc(Cl)cc2)c2ccccn12)N1CCCC1 |  | inactive: 96.9% [at 87.6 µM] |
| COc1cccc(-n2c(SCC(=O)Nc3c(C)cc(C)cc3C)nc3c([nH]c4ccccc43)c2=O)c1 | inconclusive: 7.08 µM [inhibitor, full curve, poor fit] |  |
| CCOC(=O)C1CCN(C(=O)c2ccc3oc(-c4ccncc4Cl)nc3c2)CC1 |  | inactive: 15.7% [at 87.6 µM] |
| O=C1CCN(C(=O)c2ccccc2)CCCC(C(=O)NCc2cccc(C(F)(F)F)c2)CCN1 (stereo not drawn) | inconclusive: 8.91 µM [inhibitor, single point] |  |
| Cc1ccc(CNC(=O)N2CCc3c(nc4cc(-c5ccccc5Cl)[nH]n4c3=O)C2)cc1 | inconclusive: 3.98 µM [inhibitor, single point] |  |
| CCC(=O)N1CCc2cc(S(=O)(=O)NC(CC(C)C)C(=O)NCCc3ccccc3)ccc21 (stereo not drawn) | inconclusive: 20 µM [inhibitor, partial curve, poor fit] |  |
| COc1ccc(-c2nc3cc(C)ccc3cc2CN2CCC(NC(C)=O)C2)cc1 (stereo not drawn) |  | inactive: -7.26% |
| COc1ccc(CCNC(=O)C(=O)NCC(c2ccco2)S(=O)(=O)c2cccs2)cc1OC (stereo not drawn) | inconclusive: 39.8 µM [inhibitor, single point] |  |
| CCc1nc2c(NS(=O)(=O)c3cccnc3)cccn2n1 |  | inactive: -4.68% |
| O=C(NC[C@H]1O[C@@H](CC(=O)N2CCN(c3ccccn3)CC2)[C@H](O)[C@@H]1O)Nc1cccc(F)c1 | inconclusive: 39.8 µM [inhibitor, single point] |  |
